Data taken from publication PMC6140323.
Changes are numbered by the printed parent chain. Results are given in words; binding and its absence hold for the method and conditions named. Binding seen in cells or lysates may run through a third protein. Some binding calls cover weakened binding; strength is not graded here. Where a sequence is shown, tags or fusion partners need not be part of it.

Chains of the proteins cited; added tags and fusions are not shown.
UniProt P42858: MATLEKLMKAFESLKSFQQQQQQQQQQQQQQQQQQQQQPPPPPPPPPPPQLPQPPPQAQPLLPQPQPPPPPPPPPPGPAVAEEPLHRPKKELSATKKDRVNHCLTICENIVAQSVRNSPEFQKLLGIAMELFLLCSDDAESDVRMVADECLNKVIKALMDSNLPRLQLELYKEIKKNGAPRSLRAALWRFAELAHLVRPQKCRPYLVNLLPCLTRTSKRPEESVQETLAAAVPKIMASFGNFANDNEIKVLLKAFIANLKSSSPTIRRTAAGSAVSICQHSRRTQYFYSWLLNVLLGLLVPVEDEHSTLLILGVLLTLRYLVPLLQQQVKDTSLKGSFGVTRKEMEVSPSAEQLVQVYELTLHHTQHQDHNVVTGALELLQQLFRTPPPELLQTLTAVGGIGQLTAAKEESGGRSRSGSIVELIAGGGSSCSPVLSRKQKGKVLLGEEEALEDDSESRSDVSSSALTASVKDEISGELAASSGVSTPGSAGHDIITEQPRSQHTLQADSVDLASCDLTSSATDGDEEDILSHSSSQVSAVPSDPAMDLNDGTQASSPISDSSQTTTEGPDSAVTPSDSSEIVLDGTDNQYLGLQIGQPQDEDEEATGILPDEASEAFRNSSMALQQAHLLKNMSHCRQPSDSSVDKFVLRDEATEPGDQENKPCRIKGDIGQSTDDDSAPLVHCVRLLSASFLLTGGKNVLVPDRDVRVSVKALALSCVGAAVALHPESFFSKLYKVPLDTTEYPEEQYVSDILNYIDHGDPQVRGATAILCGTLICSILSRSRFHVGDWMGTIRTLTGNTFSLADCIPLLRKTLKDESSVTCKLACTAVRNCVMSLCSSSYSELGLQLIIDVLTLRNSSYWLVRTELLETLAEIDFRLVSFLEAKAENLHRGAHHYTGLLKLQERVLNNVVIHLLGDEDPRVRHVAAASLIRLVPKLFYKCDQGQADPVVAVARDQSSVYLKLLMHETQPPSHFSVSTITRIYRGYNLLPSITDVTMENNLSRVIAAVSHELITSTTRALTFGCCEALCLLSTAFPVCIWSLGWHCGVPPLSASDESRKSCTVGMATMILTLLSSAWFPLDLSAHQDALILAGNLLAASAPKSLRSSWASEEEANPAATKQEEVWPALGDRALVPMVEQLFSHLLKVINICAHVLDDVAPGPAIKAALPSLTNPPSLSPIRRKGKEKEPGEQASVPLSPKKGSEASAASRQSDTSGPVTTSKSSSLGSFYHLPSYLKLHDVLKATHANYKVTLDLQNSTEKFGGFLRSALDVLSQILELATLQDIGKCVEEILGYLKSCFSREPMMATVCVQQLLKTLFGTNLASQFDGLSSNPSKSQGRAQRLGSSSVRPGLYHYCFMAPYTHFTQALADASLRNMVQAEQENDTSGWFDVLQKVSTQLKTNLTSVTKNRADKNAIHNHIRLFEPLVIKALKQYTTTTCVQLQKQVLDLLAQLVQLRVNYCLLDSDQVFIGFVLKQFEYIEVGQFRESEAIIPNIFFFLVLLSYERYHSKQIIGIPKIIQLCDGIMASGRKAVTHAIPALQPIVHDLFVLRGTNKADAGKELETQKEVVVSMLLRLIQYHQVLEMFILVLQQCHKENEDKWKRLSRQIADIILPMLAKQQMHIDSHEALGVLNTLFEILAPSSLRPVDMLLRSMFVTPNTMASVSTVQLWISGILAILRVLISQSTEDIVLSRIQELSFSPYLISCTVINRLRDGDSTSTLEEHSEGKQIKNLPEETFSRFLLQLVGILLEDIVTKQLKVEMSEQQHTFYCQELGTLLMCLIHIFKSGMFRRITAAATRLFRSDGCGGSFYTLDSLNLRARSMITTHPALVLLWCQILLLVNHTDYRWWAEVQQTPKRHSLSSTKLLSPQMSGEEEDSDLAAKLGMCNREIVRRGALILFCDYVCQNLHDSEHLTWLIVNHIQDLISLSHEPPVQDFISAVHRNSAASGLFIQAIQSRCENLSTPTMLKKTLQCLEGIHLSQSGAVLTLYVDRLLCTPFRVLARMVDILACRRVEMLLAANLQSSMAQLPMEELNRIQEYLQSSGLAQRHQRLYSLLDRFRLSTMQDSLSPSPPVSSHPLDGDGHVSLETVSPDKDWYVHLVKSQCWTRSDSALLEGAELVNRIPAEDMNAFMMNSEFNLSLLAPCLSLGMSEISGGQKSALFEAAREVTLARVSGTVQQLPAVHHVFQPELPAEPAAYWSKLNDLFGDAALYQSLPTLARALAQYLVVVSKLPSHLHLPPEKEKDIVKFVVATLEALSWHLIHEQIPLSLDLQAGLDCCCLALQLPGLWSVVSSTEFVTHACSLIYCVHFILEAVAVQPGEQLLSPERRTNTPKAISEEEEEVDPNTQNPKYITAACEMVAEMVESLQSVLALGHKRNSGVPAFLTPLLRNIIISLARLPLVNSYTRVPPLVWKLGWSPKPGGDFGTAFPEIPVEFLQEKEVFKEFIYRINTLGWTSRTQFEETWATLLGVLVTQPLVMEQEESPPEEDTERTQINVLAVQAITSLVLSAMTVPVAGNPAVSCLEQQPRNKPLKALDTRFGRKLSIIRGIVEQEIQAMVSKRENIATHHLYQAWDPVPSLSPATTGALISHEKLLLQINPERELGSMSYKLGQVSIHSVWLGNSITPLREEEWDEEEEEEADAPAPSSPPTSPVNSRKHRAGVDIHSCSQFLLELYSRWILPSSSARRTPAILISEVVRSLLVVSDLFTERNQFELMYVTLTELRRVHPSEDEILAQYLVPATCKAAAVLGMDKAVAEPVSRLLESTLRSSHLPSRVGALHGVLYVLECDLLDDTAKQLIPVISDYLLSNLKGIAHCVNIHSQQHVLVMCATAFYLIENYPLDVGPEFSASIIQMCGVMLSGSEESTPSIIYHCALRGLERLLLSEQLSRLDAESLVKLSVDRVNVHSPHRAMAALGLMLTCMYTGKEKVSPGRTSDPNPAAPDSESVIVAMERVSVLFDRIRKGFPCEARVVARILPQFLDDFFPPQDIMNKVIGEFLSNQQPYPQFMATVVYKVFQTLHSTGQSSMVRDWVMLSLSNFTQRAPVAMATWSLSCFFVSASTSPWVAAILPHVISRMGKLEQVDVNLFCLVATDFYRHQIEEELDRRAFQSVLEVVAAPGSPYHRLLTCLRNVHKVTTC

Columns and labels:
Assay in all cases: co-IP; GFP-nanotrap precipitation of GFP-tagged constructs from transiently transfected HEK293-T lysates (50 mM Tris-HCl pH 7.4, 0.5% NP40), 1 h at 4°C; western blot for endogenous Htt and septins
[1] = target: T1, GFP-SNX20 N-terminal region (residues 1-66) (UniProt Q7Z614)
T1 sequence: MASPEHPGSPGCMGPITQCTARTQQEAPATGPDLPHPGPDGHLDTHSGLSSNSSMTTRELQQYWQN

[2] = target: T2, GFP-SNX21 PX (residues 129-240) (human) (UniProt Q969T3)
T2 sequence: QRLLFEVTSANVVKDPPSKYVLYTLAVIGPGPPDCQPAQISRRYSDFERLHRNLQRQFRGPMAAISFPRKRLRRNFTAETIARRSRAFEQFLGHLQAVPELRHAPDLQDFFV

[3] = target: T3, GFP-SNX21 residues 1-52 (human) (UniProt Q969T3)
T3 sequence: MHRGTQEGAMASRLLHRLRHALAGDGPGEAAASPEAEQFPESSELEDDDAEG

[4] = target: T4, GFP-SNX21 residues 53-129 (human) (UniProt Q969T3)
T4 sequence: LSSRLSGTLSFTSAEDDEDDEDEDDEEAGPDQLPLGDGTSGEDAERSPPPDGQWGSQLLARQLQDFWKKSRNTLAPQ

[5] = target: T5, GFP-SNX21(D48K) (human) (UniProt Q969T3)
T5 sequence: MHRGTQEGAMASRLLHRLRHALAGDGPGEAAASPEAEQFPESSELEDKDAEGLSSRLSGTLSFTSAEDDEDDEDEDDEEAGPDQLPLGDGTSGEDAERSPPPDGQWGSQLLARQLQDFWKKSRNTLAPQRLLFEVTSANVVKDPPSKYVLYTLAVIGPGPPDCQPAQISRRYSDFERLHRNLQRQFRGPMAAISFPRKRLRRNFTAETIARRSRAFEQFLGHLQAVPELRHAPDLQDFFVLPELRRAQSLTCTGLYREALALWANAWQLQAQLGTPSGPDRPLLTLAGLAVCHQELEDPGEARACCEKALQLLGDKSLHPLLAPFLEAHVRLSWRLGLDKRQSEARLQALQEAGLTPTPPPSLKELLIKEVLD

[6] = target: T6, GFP-SNX21(D48K, D49K) (human) (UniProt Q969T3)
T6 sequence: T5 sequence with D49K

[7] = target: T7, GFP-SNX21(Δ67-79) (human) (UniProt Q969T3)
T7 sequence: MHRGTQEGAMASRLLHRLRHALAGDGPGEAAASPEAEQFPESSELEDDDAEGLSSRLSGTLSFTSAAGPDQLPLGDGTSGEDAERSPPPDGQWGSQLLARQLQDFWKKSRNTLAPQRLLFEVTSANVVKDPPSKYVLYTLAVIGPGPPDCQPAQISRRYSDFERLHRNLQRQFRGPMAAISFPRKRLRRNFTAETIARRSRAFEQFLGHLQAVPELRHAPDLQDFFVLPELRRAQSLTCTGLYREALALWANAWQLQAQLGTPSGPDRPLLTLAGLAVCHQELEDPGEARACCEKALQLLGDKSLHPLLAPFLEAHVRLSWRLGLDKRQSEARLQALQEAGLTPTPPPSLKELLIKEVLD

[8] = target: T8, GFP-SNX21PX/PXB (residues 129-373) (human) (UniProt Q969T3)
T8 sequence: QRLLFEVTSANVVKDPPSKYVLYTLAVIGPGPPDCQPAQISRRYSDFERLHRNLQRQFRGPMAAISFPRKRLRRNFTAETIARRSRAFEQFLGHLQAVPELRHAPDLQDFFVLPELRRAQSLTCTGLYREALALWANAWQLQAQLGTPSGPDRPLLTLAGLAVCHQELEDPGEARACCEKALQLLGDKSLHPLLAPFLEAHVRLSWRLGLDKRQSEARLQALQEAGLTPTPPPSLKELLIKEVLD

huntingtin (Htt), endogenous (from UniProt P42858 1-3142)
binding [1]: no binding | binding [2]: no binding | binding [3]: no binding | binding [4]: no binding | binding [5]: binds | binding [6]: no binding | binding [7]: binds | binding [8]: no binding
